The record followed here is publication PMC4336329 (PLoS ONE, 2015).

The campaign covered roughly 310,000 compounds. About 2,200 (0.71%) showed an effect of 50% or more. The effect is printed as a negative number. The list shows a part of the results.

For the assay, the target named is human ether-à-go-go-related gene (hERG) potassium channel (human, UniProt Q12809). The assay is described as follows: primary screen, population patch clamp on CHO cells stably expressing hERG.
Chain of human ether-à-go-go-related gene (hERG) potassium channel (Q12809 whole entry, looked up): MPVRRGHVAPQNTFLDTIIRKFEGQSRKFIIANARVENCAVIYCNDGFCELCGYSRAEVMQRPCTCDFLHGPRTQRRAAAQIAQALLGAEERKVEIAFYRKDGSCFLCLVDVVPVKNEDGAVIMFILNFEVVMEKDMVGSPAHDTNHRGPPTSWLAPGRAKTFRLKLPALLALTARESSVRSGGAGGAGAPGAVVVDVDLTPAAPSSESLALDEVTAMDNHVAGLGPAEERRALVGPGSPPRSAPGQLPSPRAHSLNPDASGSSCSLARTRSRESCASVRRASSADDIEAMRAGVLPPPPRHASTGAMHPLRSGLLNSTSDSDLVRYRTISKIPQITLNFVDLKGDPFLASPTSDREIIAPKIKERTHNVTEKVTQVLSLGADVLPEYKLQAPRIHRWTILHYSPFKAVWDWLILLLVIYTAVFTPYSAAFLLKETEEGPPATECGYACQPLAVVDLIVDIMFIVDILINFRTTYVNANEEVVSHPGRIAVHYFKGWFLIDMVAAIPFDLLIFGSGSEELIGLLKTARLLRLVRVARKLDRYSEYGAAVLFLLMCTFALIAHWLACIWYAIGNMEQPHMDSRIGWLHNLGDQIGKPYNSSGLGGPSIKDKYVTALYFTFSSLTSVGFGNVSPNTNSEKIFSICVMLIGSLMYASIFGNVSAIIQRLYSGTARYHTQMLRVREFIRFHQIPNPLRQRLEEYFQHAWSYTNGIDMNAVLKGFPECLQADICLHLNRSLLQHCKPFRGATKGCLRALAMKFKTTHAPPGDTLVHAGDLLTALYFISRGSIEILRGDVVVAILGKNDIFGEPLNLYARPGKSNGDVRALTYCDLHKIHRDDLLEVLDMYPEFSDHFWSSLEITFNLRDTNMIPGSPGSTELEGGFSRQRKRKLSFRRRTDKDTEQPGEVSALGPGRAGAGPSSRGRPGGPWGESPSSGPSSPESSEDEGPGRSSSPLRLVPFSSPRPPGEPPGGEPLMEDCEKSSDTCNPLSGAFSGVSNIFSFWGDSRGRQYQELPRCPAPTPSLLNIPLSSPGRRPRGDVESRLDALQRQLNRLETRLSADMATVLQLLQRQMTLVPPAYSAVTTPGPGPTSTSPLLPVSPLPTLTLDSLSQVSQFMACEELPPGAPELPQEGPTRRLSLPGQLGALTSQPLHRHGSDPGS
With `CC(=O)Nc1nc(-c2cccs2)cs1`, the “hERG current change (%, negative = inhibition) at 1uM” value amounted to 5.44%.

Take `O=C(c1ccc(NC(=S)NCc2ccco2)cc1)N1CCOCC1`: the “hERG current change (%, negative = inhibition) at 1uM” value worked out at 3.41%.

With `Cc1c(Cl)cccc1N(CC(=O)NC1CCCCC1)S(C)(=O)=O`, the “hERG current change (%, negative = inhibition) at 1uM” value is 15.2%.

For the compound `Cc1ccccc1C(=O)Nc1ccnn1C1CCN(C(=O)c2ccoc2)CC1`, the “hERG current change (%, negative = inhibition) at 1uM” value was 18.3%.

As to `O=C(CCCn1c(=O)c2sccc2n(Cc2ccc(F)cc2)c1=O)NCc1ccco1`, the “hERG current change (%, negative = inhibition) at 1uM” value is -0.82%.

For the compound `CCN(CC)CCN1C(=O)C(=O)/C(=C(/O)c2c(C)[nH]c(C(=O)OC)c2C)C1c1cccnc1` (stereo not drawn), the “hERG current change (%, negative = inhibition) at 1uM” value is 13.6%.

As for `Cn1c(=O)n(C)c2cc3[nH]cnc3cc21`, the “hERG current change (%, negative = inhibition) at 1uM” value turned out to be 3.46%.

Consider `COc1ccc(NC(=O)CSc2nncn2C)cc1OC`, for which the “hERG current change (%, negative = inhibition) at 1uM” value was determined as 4.77%.

With `COC(=O)CCC(=O)Nc1cccc2ccccc12`, the “hERG current change (%, negative = inhibition) at 1uM” value is reported as 12.5%.

With `CC1(C)CC(=O)C(CCCN2C(=O)c3ccccc3C2=O)C(=O)C1`, the “hERG current change (%, negative = inhibition) at 1uM” value was -15.2%.

Turning to `CCC1=Nc2cc(C(=O)N3CCCCC3)ccc2Sc2ccc(C)cc21`, the “hERG current change (%, negative = inhibition) at 1uM” value amounted to 11.8%.

As for `Cc1ccc(Cc2c(C)nc3nc(SCC(=O)NCCN4CCOCC4)nn3c2C)cc1`, the “hERG current change (%, negative = inhibition) at 1uM” value is -0.464%.

`Cc1ccc(CN2CC(C(=O)NCCCSc3ccccc3)CC2=O)cc1` (stereo not drawn): the “hERG current change (%, negative = inhibition) at 1uM” value came to 13.3%.

Consider `C/C(=N\NC(=O)c1nnn(-c2nonc2N)c1-c1ccccc1)c1cccnc1`, for which the “hERG current change (%, negative = inhibition) at 1uM” value came to 14.1%.

Regarding `COc1ccc(N2C(=O)c3ccc(C(=O)Nc4cc(OC)ccc4OC)cc3C2=O)cc1`, the “hERG current change (%, negative = inhibition) at 1uM” value is given as 16.6%.

Turning to `Cc1ccc(OCC(O)CNC2CCCC2)cc1C.Cl` (stereo not drawn), the “hERG current change (%, negative = inhibition) at 1uM” value was 8.86%.

On to `CC1CN(C/C(=N\O)C23CC4CC(CC(C4)C2)C3)CC(C)O1` (stereo not drawn), for which the “hERG current change (%, negative = inhibition) at 1uM” value stood at 12.3%.

Turning to `O=C(O)CCCC(=O)N1CCN(c2nc(-c3ccccc3)c3ccccc3n2)CC1`, the “hERG current change (%, negative = inhibition) at 1uM” value is 7.45%.

Take `O=C(O)c1ccccc1CSc1nnc2c(n1)[nH]c1ccccc12`: the “hERG current change (%, negative = inhibition) at 1uM” value was determined as 11.4%.

As to `O=C(CSc1nc2scc(-c3ccccc3)c2c(=O)[nH]1)NCCc1ccccc1`, the “hERG current change (%, negative = inhibition) at 1uM” value came to 10.2%.

As for `CCN(CC(=O)Nc1ccc([N+](=O)[O-])cc1OC)CC(=O)NC(C)(C)C`, the “hERG current change (%, negative = inhibition) at 1uM” value amounted to 2.84%.

In the case of `CC1=Nc2ncnn2C(c2ccccc2)/C1=N\O` (stereo not drawn), the “hERG current change (%, negative = inhibition) at 1uM” value worked out at 3.7%.

As for `CN1C(=S)N(c2ccccc2)C(=O)/C1=C/c1cccs1`, the “hERG current change (%, negative = inhibition) at 1uM” value is on record as -1.17%.

On to `Cc1cc(Cl)ccc1OCC(=O)N1CCN(C)CC1`, for which the “hERG current change (%, negative = inhibition) at 1uM” value was found to be 7.84%.

As to `CCCC[n+]1ccn(C2=C([O-])c3ccccc3C(=O)/C2=N\S(=O)(=O)c2ccccc2)c1`, the “hERG current change (%, negative = inhibition) at 1uM” value is on record as 10.2%.

Consider `Cc1cccc(-n2cnc3cc(C(=O)N4CCc5ccccc54)ccc32)c1`, for which the “hERG current change (%, negative = inhibition) at 1uM” value is -6.54%.

In the case of `O=C(O)C(=O)O.O=C(c1cccc(F)c1)N1CCC(N2CCCCCC2)CC1`, the “hERG current change (%, negative = inhibition) at 1uM” value is given as -11.6%.

Regarding `COc1ccc(S(=O)(=O)N2CCN(C(=O)c3cc(-c4ccc(Br)cc4)n[nH]3)CC2)cc1OC`, the “hERG current change (%, negative = inhibition) at 1uM” value is -3.86%.

In the case of `COc1ccc(/C(N)=N/OC(=O)c2ccc(OC)c([N+](=O)[O-])c2)cc1OC`, the “hERG current change (%, negative = inhibition) at 1uM” value is listed as -22%.

In the case of `CC(C)N1CN=C(Nc2nc3ccccc3o2)NC1`, the “hERG current change (%, negative = inhibition) at 1uM” value is 26.5%.

In the case of `COc1cc(/C=N/NC(=O)Cc2c[nH]c3ccccc23)cc(OC)c1OC`, the “hERG current change (%, negative = inhibition) at 1uM” value was -0.919%.

Turning to `O=C(COc1ccc(-c2nnco2)cc1)Nc1ccc(C(F)(F)F)cc1`, the “hERG current change (%, negative = inhibition) at 1uM” value came to 24.1%.

Take `Cc1ccccc1C(=O)NC(C(=O)Nc1nc2c(s1)CCCC2)C(C)C` (stereo not drawn): the “hERG current change (%, negative = inhibition) at 1uM” value stood at 3.13%.

In the case of `CC(C)(C)c1nc(CN2CCCCC2)cc(CN2CCCCC2)c1O`, the “hERG current change (%, negative = inhibition) at 1uM” value was 4.44%.

On to `COc1ccc(/C=C/C(=O)Nc2nc(C)cc(C)n2)cc1OC`, for which the “hERG current change (%, negative = inhibition) at 1uM” value is 13.4%.

Turning to `CC1CN(S(=O)(=O)c2cccc(C(=O)N(CCc3ccccc3)Cc3ccccc3)c2)CC(C)O1` (stereo not drawn), the “hERG current change (%, negative = inhibition) at 1uM” value amounted to 3.87%.

As to `CCOC(=O)C1CCCN(C(=O)c2cccc([N+](=O)[O-])c2C)C1` (stereo not drawn), the “hERG current change (%, negative = inhibition) at 1uM” value is reported as 4.21%.

In the case of `CC(C)(C)c1ccc(OCCCC(=O)NNC(=O)c2ccccc2O)cc1`, the “hERG current change (%, negative = inhibition) at 1uM” value was determined as 15.6%.

Take `CCOC(=O)c1ccc(CNC(=O)CSc2nnnn2-c2ccc(Cl)cc2)o1`: the “hERG current change (%, negative = inhibition) at 1uM” value turned out to be 0.329%.

Take `COC(=O)C(C(C)=O)C1=C/C(=N\S(=O)(=O)c2ccc(C)cc2)c2ccccc2C1=O` (stereo not drawn): the “hERG current change (%, negative = inhibition) at 1uM” value came to 2.22%.

With `N#Cc1nc(-c2ccc(Cl)cc2)oc1NCc1cccc2c1OCO2`, the “hERG current change (%, negative = inhibition) at 1uM” value is 16%.

On to `O=C(/C=C/c1ccc(Cl)cc1Cl)c1cccnc1`, for which the “hERG current change (%, negative = inhibition) at 1uM” value amounted to 9.99%.

With `O=C(NCCCN1CCc2ccccc2C1)Nc1ccc(Cl)cc1`, the “hERG current change (%, negative = inhibition) at 1uM” value was -44.5%.

For `COc1ccc(N(CC(=O)NC2CCCC2)C(=O)Cn2nnc(-c3ccc(F)cc3)n2)cc1OC`, the “hERG current change (%, negative = inhibition) at 1uM” value is on record as 14.2%.

For the compound `N/C(COc1cc(Cl)cc(Cl)c1)=N\O`, the “hERG current change (%, negative = inhibition) at 1uM” value turned out to be 8.18%.
